Laboratory results from PubChem BioAssay AID1461 (National Center for Advancing Translational Sciences (NCATS), 2008).
Among all 220,000 compounds or so, about 2,300 (1%) were called active. The shares of active, inactive and inconclusive entries below differ from those in the screen. The call rests on the fitted dose curve; in most records, active means well fitted inhibition curve with a large enough effect; inconclusive means small, poorly fitted or top-dose-only effect, or effect the other way; inactive means no such curve, though single readings can be large or run the other way. Potencies of inconclusive entries are left out as doubtful fits.

Biological target: Neuropeptide S receptor (Homo sapiens) (UniProt Q6W5P4)
Assay: qHTS Assay for Antagonists of the Neuropeptide S Receptor: cAMP Signal Transduction; further: nearly all actives have a fitted effect of over 50% in size
Details: CHO-NPSR cells, cAMP TR-FRET, antagonist mode; activity change, negative = inhibition: at 38.3 µM (top of the series) unless noted
On the % scale 0 is the no-effect control and ±100 the full control effect; potency means the concentration at half of the fitted maximal effect; tags describe the fitted curve by direction and shape.

Sequence of UniProt Q6W5P4 (Q6W5P4 whole entry, looked up): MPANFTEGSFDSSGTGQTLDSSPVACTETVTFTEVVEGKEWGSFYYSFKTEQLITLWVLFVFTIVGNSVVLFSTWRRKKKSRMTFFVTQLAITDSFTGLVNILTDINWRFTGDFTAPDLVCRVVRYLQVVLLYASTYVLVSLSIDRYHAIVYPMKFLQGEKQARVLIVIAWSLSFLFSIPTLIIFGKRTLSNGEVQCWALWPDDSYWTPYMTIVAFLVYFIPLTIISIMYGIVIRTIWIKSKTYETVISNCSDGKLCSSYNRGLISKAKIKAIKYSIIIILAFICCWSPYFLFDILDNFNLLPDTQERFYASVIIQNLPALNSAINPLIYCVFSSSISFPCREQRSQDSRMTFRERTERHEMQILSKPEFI

Q: With `CC(C)c1ccc(C(=O)NCCCN(C)C)cc1` as the molecule, how does the “activity change, negative = inhibition” value read?
A: inactive: 13.8%

Q: With `COC(=O)COc1ccc(S(=O)(=O)Nc2cc(OC)ccc2OC)cc1` as the molecule, how does the “activity change, negative = inhibition” value read?
A: inactive: -5.63% [at 46.1 µM]

Q: Which Potency does the source give for `CCCCCOc1ccccc1C(=O)NCCC(=O)O` here?
A: inconclusive [inhibitor, single point]

Q: How did the Potency turn out when `C/C(=N\Nc1nc2ccccc2[nH]1)c1cc2ccccc2o1` was run?
A: inconclusive [inhibitor, single point]

Q: For `CCSc1nnc(NC(=O)NC(CC)(C(F)(F)F)C(F)(F)F)s1`, which Potency is on record?
A: inconclusive [inhibitor, single point]

Q: With `Cc1ccc(S(=O)(=O)N2CCOCC2)cc1C(=O)NC(=S)N1CC(C)CC(C)C1` (centres undefined) as the molecule, how does the Potency read?
A: inconclusive [inhibitor, single point]

Q: With `Cc1cccc(N2CCc3c2nc2ccc(Br)cc2c3N)c1` as the molecule, how does the “activity change, negative = inhibition” value read?
A: inactive: -9.07% [at 46.1 µM]

Q: How did the Potency turn out when `CC(=O)c1c(C)[nH]c(C(=O)Nc2nc(-c3ccccc3)c(C)s2)c1C` was run?
A: inconclusive [inhibitor, partial curve]

Q: With `Cc1nc(-c2coc3c(CN(C)C)c(O)ccc3c2=O)cs1` as the molecule, how does the “activity change, negative = inhibition” value read?
A: inactive: -7.36% [at 46.1 µM]

Q: For `CS/C(Nc1cc(Cl)ccc1Cl)=C(/C#N)C(=O)c1ccco1`, which Potency is on record?
A: inconclusive [activator, partial curve]

Q: For `c1ccc(CN2CCN(c3nc(-c4ccccn4)nc4ccccc34)CC2)cc1`, which activity change, negative = inhibition is on record?
A: inactive: 9.11% [at 7.67 µM]

Q: For `Cc1ccccc1OCC(=O)N1N=C(C(F)(F)F)CC1(O)C(C)(C)C` (centres undefined), which Potency is on record?
A: inconclusive [inhibitor, single point]

Q: How did the “activity change, negative = inhibition” value turn out when `O=C1C(Cc2c[nH]c3ccccc23)NC(=S)N1C1CCCCC1` (centres undefined) was run?
A: inactive: -51.7%

Q: For `Cn1ncc(Cl)c1C(=O)N/N=C/c1cccc(OC2CSC2)c1`, which “activity change, negative = inhibition” value is on record?
A: inactive: -18.2%

Q: With `CCNC(=O)NC(=O)CSc1nc2ccccc2n1CC(C)C` as the molecule, how does the Potency read?
A: inconclusive [inhibitor, single point]

Q: How did the Potency turn out when `S=C(NCc1cccs1)Nc1cc(Cl)cc(Cl)c1` was run?
A: inconclusive [activator, single point]

Q: With `CC1CCN(Cc2c(C#N)c3ccccc3n2C)CC1` as the molecule, how does the Potency read?
A: inconclusive [inhibitor, partial curve]

Q: With `CCOC(=O)C(=Cc1ccc(-n2ccnc2)cc1)C(=O)OCC` as the molecule, how does the “activity change, negative = inhibition” value read?
A: inactive: -37.1%

Q: How did the “activity change, negative = inhibition” value turn out when `O=C(CC1S/C(=N/N=C/c2cccnc2)NC1=O)Nc1ccccc1` (centres undefined) was run?
A: inactive: -21%

Q: Which Potency does the source give for `COc1ccccc1-c1cc(C(=O)NCc2ccccc2)no1` here?
A: inconclusive [inhibitor, partial curve, poor fit]

Q: `C/C(=N\NC(=O)COc1ccccc1-c1ccccc1)c1ccc(O)cc1O` was tested. Which Potency did it give?
A: inconclusive [inhibitor, single point]

Q: For `COc1cccc(OCC(=O)N(Cc2nc(-c3ccc(Cl)cc3)no2)C(C)C)c1`, which Potency is on record?
A: inconclusive [inhibitor, partial curve, poor fit]

Q: `CCc1ccc(C(C(=O)NC2CCCC2)N(C(=O)/C=C/C(=O)Nc2cc(C)on2)c2ccccc2C)cc1` (centres undefined) was tested. Which Potency did it give?
A: inconclusive [inhibitor, single point]

Q: `Cc1ccc(-c2noc(CCC(=O)NC3CCCc4ccccc43)n2)cc1` (centres undefined) was tested. Which Potency did it give?
A: inconclusive [inhibitor, partial curve]

Q: For `COc1ccc(CCNC(=O)CSc2nc3c(c(=O)n(C)c(=O)n3C)n2C(C)C)cc1OC`, which Potency is on record?
A: inconclusive [inhibitor, partial curve, poor fit]

Q: `COC(=O)c1sccc1NC(=O)CSc1ccccc1NS(=O)(=O)c1ccccc1Cl` was tested. Which Potency did it give?
A: inconclusive [inhibitor, partial curve, poor fit]

Q: How did the Potency turn out when `COc1ccc(-c2cc(C(=O)Nc3cccc(C(C)=O)c3)no2)cc1` was run?
A: inconclusive [inhibitor, single point]

Q: `CCOC(=O)c1c(NC(NC(C)=O)C(Cl)(Cl)Cl)sc(C(C)=O)c1C` (centres undefined) was tested. Which Potency did it give?
A: inconclusive [inhibitor, single point]

Q: How did the “activity change, negative = inhibition” value turn out when `COc1ccc(-c2nnc(SCCc3ccccc3)n2N)cc1` was run?
A: inactive: -1.47% [at 46.1 µM]

Q: With `O=C(O)c1sccc1S(=O)(=O)c1ccccc1` as the molecule, how does the Potency read?
A: inconclusive [inhibitor, full curve, poor fit]

Q: Which “activity change, negative = inhibition” value does the source give for `COc1cc(C(=O)/C=C/Nc2ccc(NC(C)=O)cc2)cc(OC)c1OC` here?
A: inactive: 6.58%

Q: With `CCOC(=O)c1sc(=NC(=O)c2ccc(S(=O)(=O)N3CC(C)OC(C)C3)cc2)n(C)c1C` (centres undefined) as the molecule, how does the Potency read?
A: active: 10 µM

Q: How did the Potency turn out when `C(=N/Nc1nc(-c2ccccc2)cc(-c2ccccc2)n1)/c1cccnc1` was run?
A: inconclusive [inhibitor, single point]

Q: With `Cc1ccc(SCCNC(=O)C(CO)(CO)CO)cc1` as the molecule, how does the “activity change, negative = inhibition” value read?
A: inactive: -2.98% [at 46.1 µM]

Q: `COc1ccccc1CC(=O)Nc1ccc(-c2nnc(-c3ccco3)o2)cc1` was tested. Which Potency did it give?
A: inconclusive [inhibitor, single point]

Q: For `Cc1nc(N2CCN(C)CC2)[nH]c(=O)c1Cc1cccc2ccccc12`, which “activity change, negative = inhibition” value is on record?
A: inactive: 8.8% [at 46.1 µM]

Q: With `CCOC(=O)/C(C#N)=C/c1cn(CCOc2ccc(OC)cc2)c2ccccc12` as the molecule, how does the Potency read?
A: inconclusive [inhibitor, single point]

Q: With `CCOC(=O)COc1cc2oc(=O)cc(C)c2cc1[N+](=O)[O-]` as the molecule, how does the “activity change, negative = inhibition” value read?
A: inactive: -15.9%

Q: How did the Potency turn out when `CCc1ccc(NC(=S)N(Cc2ccccc2)Cc2ccccn2)cc1` was run?
A: inconclusive [inhibitor, single point]

Q: With `Cc1ccc(S(=O)(=O)N/N=C2/CC(c3ccccc3)Oc3ccccc32)cc1[N+](=O)[O-]` (centres undefined) as the molecule, how does the Potency read?
A: inconclusive [inhibitor, single point]

Q: `CCOC(=O)C1=C(C)NC2=C(C(=O)CC(C)(C)C2)C1c1coc2ccccc2c1=O` (centres undefined) was tested. Which Potency did it give?
A: inconclusive [inhibitor, single point]

Q: Which “activity change, negative = inhibition” value does the source give for `CN(Cc1ccccc1)C(=O)CSc1cc(=O)n(C)c2ccccc12` here?
A: inactive: -7.03%

Q: How did the Potency turn out when `O=C(Nc1cc(Cl)ccc1O)c1cc2n(n1)C(C(F)(F)F)CC(c1ccc3c(c1)OCO3)N2` (centres undefined) was run?
A: active: 6.31 µM

Q: Which Potency does the source give for `COc1ccc(OC)c(NS(=O)(=O)c2ccc(N3CCCC3=O)cc2)c1` here?
A: inconclusive [activator, single point]

Q: For `COc1ccc(-n2c(Cc3cccn3C)nnc2SCC(=O)Nc2ccc(Cl)cc2)cc1`, which Potency is on record?
A: inconclusive [inhibitor, single point]

Q: For `O=C(O)CSc1nnc(-c2cccs2)n1-c1ccc(Cl)cc1`, which Potency is on record?
A: inconclusive [inhibitor, single point]

Q: How did the Potency turn out when `Cc1cc(C)c2cc(CN(Cc3ccco3)C(=O)NCc3ccccc3)c(=O)[nH]c2c1` was run?
A: inconclusive [inhibitor, partial curve, poor fit]

Q: `Cc1ccc(-c2[nH]nc3c2C(c2ccoc2)C(C#N)=C(N)O3)cc1C` (centres undefined) was tested. Which Potency did it give?
A: inconclusive [inhibitor, partial curve]

Q: `COc1ccc(Cc2c(C)nc(N)nc2Cl)cc1` was tested. Which Potency did it give?
A: inconclusive [activator, full curve, poor fit]

Q: With `O=C(CC1S/C(=N/N=C/c2ccco2)NC1=O)Nc1cccc(Cl)c1Cl` (centres undefined) as the molecule, how does the “activity change, negative = inhibition” value read?
A: inactive: 3.9%

Q: Which Potency does the source give for `Cc1ccc(N2C(=O)c3ccc(N)cc3C2=O)cc1C` here?
A: inconclusive [inhibitor, single point]

Q: For `CCOC(=O)Cn1c(=O)oc2cc(S(=O)(=O)Nc3ccc(N(CC)CC)cc3C)ccc21`, which Potency is on record?
A: inconclusive [inhibitor, partial curve, poor fit]

Q: Which “activity change, negative = inhibition” value does the source give for `CC1CCN(c2ncnc3c2cnn3Cc2ccc(Cl)cc2)CC1` here?
A: inactive: -18.9% [at 46.1 µM]

Q: `COCCCn1c(O)c(/C=C2\N=C(C#N)C(=Nc3ccc(C)cc3)O2)sc1=S` was tested. Which Potency did it give?
A: inconclusive [inhibitor, single point]

Q: `O=C(NCc1ccc(-c2nc3ccccc3s2)cc1)c1cc2ccccc2o1` was tested. Which Potency did it give?
A: inconclusive [inhibitor, single point]

Q: `COc1ccc(CC(=O)c2cc(OC)c(OC)cc2CC(=O)O)cc1OC` was tested. Which Potency did it give?
A: inconclusive [inhibitor, single point]

Q: `COc1ccc(S(=O)(=O)Nc2cc(C)c(O)c(S(=O)(=O)c3ccccc3)c2)cc1` was tested. Which “activity change, negative = inhibition” value did it give?
A: inactive: -12.8% [at 46.1 µM]

Q: With `COc1cccc(NC(=O)C2CC(=O)OC23CCOC(C)(C)C3)c1` (centres undefined) as the molecule, how does the Potency read?
A: inconclusive [inhibitor, single point]

Q: For `Cc1onc(-c2ccccc2Cl)c1C(=O)N(C)C1CCCCC1`, which “activity change, negative = inhibition” value is on record?
A: inactive: -13% [at 46.1 µM]

Q: With `CCOC(=O)c1cc(-c2csc(-c3ccc(C(C)(C)C)cc3)n2)on1` as the molecule, how does the “activity change, negative = inhibition” value read?
A: inactive: 47.1%

Q: Which Potency does the source give for `CC(=Nc1ccccc1O)c1sc2ccccc2c1O` here?
A: inconclusive [inhibitor, single point]

Q: `O=c1[nH]c(NCCO)nc2c1C1(CCCCC1)Cc1ccccc1-2` was tested. Which Potency did it give?
A: inconclusive [inhibitor, single point]

Q: Which Potency does the source give for `CC1Cc2cc(-c3csc(NC(=O)Cc4ccccc4)n3)ccc2N1S(C)(=O)=O` (centres undefined) here?
A: inconclusive [inhibitor, full curve, poor fit]

Q: `O=C(c1c(Cl)nc2sccn12)N(C(=O)c1c(Cl)nc2sccn12)c1ccc(Cl)cn1` was tested. Which Potency did it give?
A: inconclusive [inhibitor, single point]

Q: How did the Potency turn out when `Cc1cc(Cl)n2c(nc3ccccc32)c1C#N` was run?
A: inconclusive [inhibitor, single point]

Q: Which Potency does the source give for `O=[N+]([O-])c1ccc(/C=N/N=C/c2ccc([N+](=O)[O-])o2)o1` here?
A: active: 5.01 µM

Q: With `CCOC(=O)c1c(NC(=O)CN(CC)CC)sc2c1CCC2` as the molecule, how does the Potency read?
A: inconclusive [inhibitor, single point]

Q: With `Fc1cccc(-c2cc3nc4c(c(NCc5ccco5)n3n2)CCCC4)c1` as the molecule, how does the Potency read?
A: inconclusive [inhibitor, single point]

Q: Which Potency does the source give for `CCN=C1SC(CC(=O)NCCc2ccc(OC)c(OC)c2)C(=O)N1CC` (centres undefined) here?
A: inconclusive [inhibitor, single point]
